In the supplement of paper PMC12582362:
Where a name gives a salt, the structure may show the parent alone. Among all 1,500 compounds or so, about 30 (2%) showed activity.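 How the source made its calls: active = robust z-score below -2; a few such results were not called.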 This is one part of the list.

tested on: optoTopBP1 Flp-In 293 T-REx (HEK293) cells; assay: light-induced TopBP1 condensate (nuclear foci) count, plate-normalised robust z-score vs non-control wells; higher = more TopBP1 condensates (negative = condensation inhibitor), active = hit call of the paper; conditions: 10 µM; incubation time 2 h

Row | Structure (SMILES) | light-induced TopBP1 condensate (z-score)
1 | CN1C[C@H](C(=O)N[C@]2(C)O[C@@]3(O)[C@@H]4CCCN4C(=O)[C@H](Cc4ccccc4)N3C2=O)C[C@@H]2c3cccc4[nH]cc(c34)C[C@H]21 [Dihydroergotamine tartrate] | inactive: 1.14
2 | CC(=O)OC1CN2CCC1CC2 (centres undefined) [Aceclidine Hydrochloride] | inactive: -1.46
3 | COc1cccc(C2(O)CCCCC2CN(C)C)c1 (centres undefined) [Tramadol hydrochloride] | inactive: 0.893
4 | CCCOC(=O)Cc1ccc(OCC(=O)N(CC)CC)c(OC)c1 [Propanidid] | inactive: 1.18
5 | CC(CCc1ccccc1)NC(C)C(O)c1ccc(O)cc1 (centres undefined) [Nylidrin] | inactive: 0.555
6 | CC(C)N(CCC(C(N)=O)(c1ccccc1)c1ccccn1)C(C)C (centres undefined) [Disopyramide] | inactive: -1.22
7 | C[C@H](N)[C@H](O)c1ccc(O)c(O)c1 [Levonordefrin] | inactive: 1.85
8 | O=[N+]([O-])O[C@@H]1CO[C@H]2[C@@H]1OC[C@@H]2O [Isosorbide mononitrate] | inactive: 0.806
9 | CN[C@@H]1C[C@@H](c2ccc(Cl)c(Cl)c2)c2ccccc21 [Indatraline hydrochloride] | inactive: -1.65
10 | Nc1nc(N)nc(NC2CC2)n1 [Cyromazine] | inactive: -0.353
11 | CN1[C@@H]2CC[C@H]1C[C@@H](OC(=O)[C@H](CO)c1ccccc1)C2 [Hyoscyamine (L)] | inactive: 0.214
12 | C=CC[C@]1(O)CC[C@H]2[C@@H]3CCC4=CCCC[C@@H]4[C@H]3CC[C@@]21C [Allylestrenol] | inactive: 1.27
13 | C=C[C@H]1CN2CC[C@H]1C[C@H]2[C@H](OC(=O)OCC)c1ccnc2ccc(OC)cc12 [Quinine ethyl carbonate] | inactive: -0.776
14 | C[C@]12C=CC(=O)C=C1CC[C@@H]1[C@@H]2CC[C@@]2(C)[C@H]1CC[C@]2(C)O [Methandrostenolone] | inactive: 0.27
15 | C[C@]12CC[C@H]3[C@@H](CCC4=CC(=O)CC[C@@H]43)[C@@H]1CC[C@@H]2O [Nandrolone] | inactive: 2.28
16 | COc1ccc(CN2CCNCC2)c(OC)c1OC [Trimetazidine dihydrochloride] | inactive: -0.0207
17 | CC(C)CC(N(C)C)C1(c2ccc(Cl)cc2)CCC1 (centres undefined) [Sibutramine hydrochloride] | inactive: 0.721
18 | O=C([O-])c1ccccc1-c1c2cc(Br)c(=O)cc-2oc2[c]([Hg+])c([O-])c(Br)cc12.[Na+].[Na+].[OH-] [Merbromin] | inactive: -0.221
19 | O=c1[nH]c2ccccc2n1CCCN1CCC(n2c(=O)[nH]c3cc(Cl)ccc32)CC1 [Domperidone] | inactive: 0.475
20 | C#C[C@]1(O)CC[C@H]2[C@@H]3CCC4=CC(=O)CC[C@]4(C)[C@H]3CC[C@@]21C [Ethisterone] | inactive: -0.177

Row | Structure (SMILES) | light-induced TopBP1 condensate (z-score)
21 | CC(C)[N+](C)(CCC(C(N)=O)(c1ccccc1)c1ccccc1)C(C)C [Isopropamide iodide] | inactive: -0.129
22 | S=C(NC1CCCCC1)N1CCC(c2cnc[nH]2)CC1 [Thioperamide maleate] | inactive: -0.965
23 | CCN(CC)C(=O)N[C@H]1C=C2c3cccc4[nH]cc(c34)C[C@H]2N(C)C1 [Lisuride (S)(-)] | inactive: -1.23
24 | COc1ccc2c(c1)[C@]13CCCC[C@@H]1[C@H](C2)N(C)CC3 [Dextromethorphan hydrobromide monohydrate] | inactive: 0.251
25 | CNCC(O)c1ccc(O)cc1 (racemic) [(+,-)-Synephrine] | inactive: 0.598
26 | C[C@]12CC[C@@H](O)C[C@@H]1CC[C@@H]1[C@@H]2CC[C@]2(C)C(=O)CC[C@@H]12 [Androsterone] | inactive: 0.981
27 | C=CC[C@]1(O)CC[C@H]2[C@@H]3CCC4=CC(=O)CCC4=C3C=C[C@@]21C [Altrenogest] | inactive: 0.00418
28 | C1CCc2nnnn2CC1 [Pentylenetetrazole] | inactive: 0.48
29 | CC(Cc1ccc(O)cc1)NCC(O)c1cc(O)cc(O)c1 (centres undefined) [Fenoterol hydrobromide] | inactive: -0.538
30 | CN1[C@@H]2C[C@@H](OC(=O)[C@H](CO)c3ccccc3)C[C@H]1[C@@H]1O[C@@H]12 [Scopolamine hydrochloride] | inactive: -0.28
31 | C#C[C@]1(O)CC[C@H]2[C@@H]3CCC4=CC(=O)CCC4=C3C=C[C@@]21CC [Gestrinone] | inactive: 0.545
32 | N[C@@H]1C[C@H]1c1ccccc1 [Tranylcypromine hydrochloride] | inactive: -0.501
33 | NCC(CC(=O)O)c1ccc(Cl)cc1 (racemic) [Baclofen (R,S)] | inactive: 0.141
34 | CN[C@@H]1[C@@H](O)[C@@H](O[C@@H]2[C@@H](O)[C@H](O[C@H]3O[C@H](CN)CC[C@H]3N)[C@@H](N)C[C@H]2N)OC[C@]1(C)O.CN[C@@H]1[C@@H](O)[C@@H](O[C@@H]2[C@@H](O)[C@H](O[C@H]3O[C@H]([C@@H](C)N)CC[C@H]3N)[C@@H](N)C[C@H]2N)OC[C@]1(C)O.CN[C@@H]1[C@@H](O)[C@@H](O[C@@H]2[C@@H](O)[C@H](O[C@H]3O[C@H]([C@@H](C)NC)CC[C@H]3N)[C@@H](N)C[C@H]2N)OC[C@]1(C)O [Gentamicine sulfate] | inactive: 0.287
35 | CN1CCN(C(=O)O[C@H]2c3nccnc3C(=O)N2c2ccc(Cl)cn2)CC1 [Eszopiclone] | inactive: -0.263
36 | O=C1CC[C@@]2(O)[C@H]3Cc4ccc(O)c5c4[C@@]2(CCN3CC2CC2)[C@H]1O5 [Naltrexone hydrochloride dihydrate] | inactive: -0.0285
37 | CN1CCC2(C)c3cc(O)ccc3N(C)C12 (single isomer, unassigned; (-)) [(-)-Eseroline fumarate salt] | inactive: 0.423
38 | CC(NC(C)(C)C)C(=O)c1cccc(Cl)c1 (centres undefined) [Bupropion hydrochloride] | inactive: -0.842
39 | O=c1c2ccccc2[se]n1-c1ccccc1 [Ebselen] | inactive: -0.415
